Test results as given in PubChem BioAssay AID1347071 (National Center for Advancing Translational Sciences (NCATS), 2019).
Hit rate of the full screen: of about 410,000 compounds, about 260 (0.063%) were called active. The inconclusive results got no clear call from the source; some entries with a clear call stand among them for comparison. Calls come from the whole dose curve; as a rule, active = well fitted activation curve with a large enough effect; inconclusive = small, poorly fitted or top-dose-only effect; inactive = no such curve, though single readings can be large or run the other way. Potencies of inconclusive entries are left out as doubtful fits.
Potency is the fitted concentration of half-maximal effect; tags give direction and shape of the fitted curve.

Assay: qHTS for compounds that reverse cellular toxicity of Amyloid beta (A-beta) peptide in yeast: Primary Screen; note: nearly all actives have a fitted effect of over 55% in size
Details: yeast expressing A-beta42, growth rescue, OD600, 48 h; growth rescue: at 46.1 µM (top of the series), 0% DMSO, 100% iron-clioquinol control
How it was run: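 Yeast growth medium received pinned compounds, then yeast cells expressing toxic A-beta were added; plates incubated at 30 C for 48 hr. Growth read as absorbance at 600 nm, normalized to DMSO and equimolar FeCl3 plus clioquinol controls.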
In the case of COc1ccc2c(c1)CCc1c-2n[nH]c1C(=O)O, the growth rescue was inactive: 10.6% [at 9.22 µM, 0% DMSO, 100% iron-clioquinol control].
In the case of CCOC(=O)c1[nH]c(COC(=O)C2CC(=O)N(Cc3ccccc3)C2)c(C(=O)OCC)c1C (stereo unspecified), the Potency was inconclusive [activator, partial curve, poor fit].
With COc1ccc(-c2cc(C(=O)N/N=C(\C)c3cccnc3)c3ccccc3n2)cc1 the “growth rescue” value was inactive: -11.2%.
With COc1ccc(C(C)(O)c2nc(-c3ccccc3)cs2)cc1 (stereo unspecified) the Potency was inconclusive [activator, partial curve].
For COc1ccc(S(=O)(=O)NCC2CCC(C(=O)N3CCC4(CC3)OCCO4)CC2)cc1 (stereo unspecified), the “growth rescue” value was inactive: 17.4%.
With S=C(NN=Cc1ccc2c(c1)OCO2)NN=Cc1ccc2c(c1)OCO2 the Potency was inconclusive [activator, partial curve, poor fit].
In the case of CC(=O)N1CCCc2cc(S(=O)(=O)N3CCC(C(=O)NC4CCC(C)CC4)CC3)ccc21 (stereo unspecified), the Potency was inconclusive [activator, partial curve, poor fit].
With Cc1ccc(CNC(=O)c2coc(=O)c3ccccc23)o1 the Potency was inconclusive [activator, partial curve].
With CCC(C(=O)Nc1cc(Cl)ccc1OC)c1ccccc1 (stereo unspecified) the Potency was inconclusive [activator, single point].
For Cc1cc(Cl)ccc1OCCCC(=O)OCC(N)=O, the Potency was inconclusive [activator, partial curve, poor fit].
For CCOC(=O)c1cnc(-n2nc(C)cc2C)nc1N1CC(C)OC(C)C1 (stereo unspecified), the Potency was inconclusive [activator, single point].
With O=C(Nc1ccc(Br)c(C(F)(F)F)c1)c1ccccc1 the “growth rescue” value was inactive: -21.1%.
For O=C(Cn1c(=O)nc(-c2ccccc2)c2ccccc21)NCc1ccc(Cl)cc1, the “growth rescue” value was inactive: 0.695%.
For CC(C)(C)c1ccc(C(=O)N2CCC2(C)C(=O)Nc2cccc3ncccc23)cc1 (stereo unspecified), the “growth rescue” value was inactive: -6.1%.
In the case of CC1CCC/C(=N\NC(=O)COc2ccc(Cl)cc2Cl)C1 (stereo unspecified), the “growth rescue” value was inactive: 6.62%.
With Cc1ccc2nc(-c3ccc(SCC(=O)Nc4nnc(C)s4)nc3)[nH]c2c1 the “growth rescue” value was inactive: -12.4%.
With O=C1c2ccccc2N2C(=O)c3ccccc3C2N1O (stereo unspecified) the “growth rescue” value was inactive: -9.3%.
With CCc1noc(C)c1C(=O)Nc1nc2c(C)cc(C)cc2s1 the Potency was inconclusive [activator, full curve].
With Cc1ccc(-n2c(=O)c3cccnc3n2CC(=O)Nc2ccc(Br)cc2)cc1C the “growth rescue” value was inactive: 6.3%.
For CCCCOc1ccc(C(=O)Oc2cc(C)[nH]c(=O)c2[N+](=O)[O-])cc1, the “growth rescue” value was inactive: -11.5%.
With Cc1c(C(=O)NCC(c2ccc(Cl)cc2)N2CCOCC2)oc2ccccc12 (stereo unspecified) the “growth rescue” value was inactive: 8.76%.
For CCOC(=O)/C(C#N)=C/c1cn(CCC(=O)O)nc1-c1ccccc1, the Potency was inconclusive [activator, partial curve, poor fit].
For COc1ccc([C@H]2CC(=O)C=C(c3cccc(OC)c3OC)C2)cc1OC, the Potency was inconclusive [activator, partial curve, poor fit].
With O=[N+]([O-])c1nn(-c2ccccc2)n(O)c1=NCc1ccc2c(c1)OCO2 the “growth rescue” value was inactive: 3.45%.
For CC1=NNC(=O)/C1=C\c1cn(-c2ccccc2)nc1-c1ccc(F)cc1, the “growth rescue” value was inactive: -85.3%.
For CCN(CC)S(=O)(=O)N1CCC(C(=O)NC2CCCc3ccccc32)CC1 (stereo unspecified), the Potency was inconclusive [activator, single point].
With S=C(NCc1ccccc1)Nc1cccc2ccccc12 the Potency was inconclusive [activator, partial curve, poor fit].
For CCOC(=O)c1c(N2CCCCC2)c2ccccc2[nH]c1=O, the Potency was inconclusive [activator, partial curve, poor fit].
For Cc1nnsc1C(=O)NC1CCCc2c1cnn2-c1ccccc1F (stereo unspecified), the “growth rescue” value was inactive: 5.97%.
For Cc1ccc(C(=O)OCC(=O)NCC2COc3ccccc3O2)cc1 (stereo unspecified), the Potency was inconclusive [activator, partial curve].
In the case of CC(C)(C)N1C(=O)c2ccccc2NC(=O)N1Cc1ccccc1, the “growth rescue” value was inactive: 11.9%.
With CCCC(C(=O)NCc1cccc(Cl)c1)N1Cc2ccccc2C1=O (stereo unspecified) the Potency was inconclusive [activator, partial curve].
In the case of COc1ccccc1N1CCN(C(=O)CN(c2ccccc2OC)S(=O)(=O)c2ccccc2)CC1, the Potency was inconclusive [activator, partial curve, poor fit].
In the case of Cc1cc(C)c2nc(-c3cccc(Cl)c3)c(C)c(C(=O)N3CCOCC3)c2c1, the Potency was inconclusive [activator, partial curve, poor fit].
For Cc1ccc(NC(=S)Nc2ccc(F)cc2)cc1, the Potency was inconclusive [activator, single point].
For CCC1(C)Cc2c(sc3nc(SC)[nH]c(=S)c23)CO1 (stereo unspecified), the Potency was inconclusive [activator, full curve].
For CC(C)(C)C(=O)Cn1c(=O)n(-c2ccc(Cl)cc2)c(=O)c2c3c(sc21)CCCC3, the “growth rescue” value was inactive: -1.93%.
With CCC(C)c1ccc(NC(=O)COC(=O)C2=COCCO2)cc1 (stereo unspecified) the Potency was inconclusive [activator, partial curve, poor fit].
With NC(=O)c1sc2nc3c(c(-c4ccco4)c2c1N)CCCC3 the “growth rescue” value was inactive: -1.95%.
In the case of COc1cc(C(=O)Nc2cccc(NC(=O)c3ccccc3)c2)cc(OC)c1OC, the Potency was inconclusive [activator, single point].
With CCCCn1c(N)c(N(CCC(C)C)C(=O)c2ccccc2C)c(=O)[nH]c1=O the “growth rescue” value was inactive: -0.95%.
In the case of COc1cccc(C(=O)N=c2sc3cc(S(C)(=O)=O)ccc3n2C)c1, the “growth rescue” value was inactive: -13.7%.
For COC(=O)C1CN(C(=O)COc2ccc(Cl)cc2C)c2ccccc2O1 (stereo unspecified), the Potency was inconclusive [activator, single point].
With O=C(N/N=C\c1ccccn1)C1COc2cc3ccccc3cc2O1 (stereo unspecified) the Potency was inconclusive [activator, partial curve, poor fit].
In the case of CC(=O)NCC1COc2ccccc2O1 (stereo unspecified), the “growth rescue” value was inactive: -1.26%.
With COc1ccc(-c2[nH]c(-c3ccccc3)nc2SCC(=O)NC2CCCC2)cc1 the Potency was inconclusive [activator, partial curve, poor fit].
In the case of COc1ccccc1C(O)(C(=O)NNc1cccc(C)c1)c1ccccc1OC, the Potency was inconclusive [activator, partial curve].
For CC1CCN(C(=S)NC(=O)c2cccc([N+](=O)[O-])c2)CC1, the Potency was inconclusive [activator, single point].
With Cn1c(SCC(=O)Nc2ccc(NC(=O)c3cccs3)cc2)nnc1-c1ccncc1 the Potency was inconclusive [activator, single point].
With O=C(CN1C(=O)COc2ccc(S(=O)(=O)Nc3ccccc3)cc21)NCc1ccccc1Cl the “growth rescue” value was inactive: -7.6%.
For [O-][n+]1cccc2c(Br)cc(Br)c(O)c21, the Potency was inconclusive [activator, single point].
In the case of CCCCSCc1nc2ccccn2c1Br, the Potency was inconclusive [activator, single point].
With CC(/C=N/NC(=O)Cc1cccn1C)=C\c1ccccc1 the Potency was inconclusive [activator, partial curve, poor fit].
For O=C(Nc1nccs1)c1cn(-c2ccccc2)nc1-c1ccccc1, the Potency was inconclusive [activator, partial curve, poor fit].
With Cc1cc(OCCn2c(C3CC(=O)N(Cc4ccc(F)cc4)C3)nc3ccccc32)ccc1Cl (stereo unspecified) the “growth rescue” value was inactive: -9.78%.
In the case of O=C(Cn1c(=O)oc2ccccc21)NCc1ccccc1Cl, the “growth rescue” value was inactive: 19.1%.
With O=C(Nc1nnc(-c2cccs2)o1)c1cccc(F)c1 the Potency was active: 11.2 µM.
With CC(Oc1ccc(F)cc1)c1ccnc2nc(/N=C/N(C)C)nn12 (stereo unspecified) the “growth rescue” value was inactive: 4.35%.
For O=S(=O)(NCCc1csc(-c2ccc(F)cc2)n1)c1ccc(F)cc1F, the Potency was inconclusive [activator, partial curve, poor fit].
With Cc1cccc(C)c1NC(=O)C(CCc1ccccc1)n1c(=O)c(-c2cc3ccccc3[nH]2)nc2ccccc21 (stereo unspecified) the Potency was inconclusive [activator, partial curve, poor fit].
In the case of COc1ccc(CN2CNc3nc4ccccc4n3C2)cc1, the “growth rescue” value was inactive: 3.02%.
With O=C(Nc1ccc2ccccc2c1)C(c1ccccc1)n1c(=O)c(-c2cc3ccccc3[nH]2)nc2ccccc21 (stereo unspecified) the Potency was inconclusive [activator, partial curve].
With CCc1ccc(NC(=O)N(Cc2c[nH]c3ccccc23)C2CCCCCC2)cc1 the “growth rescue” value was inactive: 16.3%.
In the case of Cc1onc(-c2ccccc2Cl)c1C(=O)Nc1nc2ccc(S(C)(=O)=O)cc2s1, the Potency was inconclusive [activator, partial curve, poor fit].
With CC(C)NC(=O)c1cccc(Br)c1 the “growth rescue” value was inactive: 12.5%.
With COc1ccc([C@@]23Oc4cc(OC)cc(OC)c4[C@]2(O)[C@H](O)[C@H](C(=O)N(C)C)[C@H]3c2ccccc2)cc1 the Potency was inconclusive [activator, full curve, poor fit].
In the case of O=C(COC(=O)c1cccc(Br)c1)NCCc1ccc(F)cc1, the Potency was inconclusive [activator, single point].
For COc1cccc(C(O)c2nc(-c3cc(F)cc(F)c3)cs2)c1 (stereo unspecified), the Potency was inconclusive [activator, single point].
For CCn1c(SCC(=O)Nc2nccc(C)n2)nc2ccccc21, the “growth rescue” value was inactive: 3.81%.
With O=C(c1ccc(-n2cccn2)cc1)N1CCc2c([nH]c3ccccc23)C1c1ccccn1 (stereo unspecified) the Potency was inconclusive [activator, partial curve, poor fit].
For CCS(=O)(=O)N1CCN(C(=O)COc2ccc(-c3ccccc3)cc2)CC1, the Potency was inconclusive [activator, partial curve, poor fit].
